# According to ChEMBL document CHEMBL4888484, “Replenishing the malaria drug discovery pipeline: Screening and hit evaluation of the MMV Hit Generation Library 1 (HGL1) against asexual blood stage Plasmodium falciparum ,using a nano luciferase reporter read-out” (2022):
# Among all 150,000 compounds or so, about 540 (0.36%) showed an effect of 50% or more. This is one part of the list.
# Tested on: Plasmodium falciparum
# Test: Primary screen in NF54 nanoGlo assay, in single point, at 2uM, 72h; a lower Z score goes with more inhibition
# Format: functional, Erythrocyte
# Conditions: timepoint 72 hour
SMILES,% Inhibition [%],Z score
Cc1ccc(-c2cc(NCc3ccncc3)nc3[nH]ccc23)c(C)n1,-14,1.4
CCC1Oc2cc(S(=O)(=O)N3CCCC(C(=O)NCc4cccnc4)C3)c(C)cc2NC1=O (stereo unspecified),-14,1.68
Cc1nc2nc(C3CCCCC3)nn2c(C)c1CC(=O)Nc1ccccc1,-11,1.31
CC(C)n1c(=O)sc2cc(NS(=O)(=O)c3cccc(F)c3)ccc21,-1,0.13
O=C(Cc1cccc(C(F)(F)F)n1)Nc1nc(C2CC2)c[nH]1,-7,0.89
O=C(OCc1cncs1)c1ccccc1,33,-0.95
O=C(Nc1ccc2ccccc2c1)c1ccc(OC(=S)Nc2ccc(Br)cc2)cc1,9,-1.34
O=S(=O)(Cc1cccc(F)c1)Cc1cc(-c2ccccc2)on1,1,-0.07
Cn1nccc1C(=O)NCCn1ccc2ccoc2c1=O,-12,2.04
Cc1cccc2[nH]cc(Cc3nc4ccccc4c(=O)[nH]3)c12,-14,1.19
Cn1nc(O)cc1-c1ccc(Cl)cc1F,-13,1.58
Cc1nnc(N(C)Cc2ncc[nH]2)c(C#N)c1C,-2,0.19
Cc1cnc(CN(CCCO)Cc2ccccc2Cl)cn1,9,-1.13
O=C1NCCCc2[nH]c(CCn3nnc4ccccc43)nc21,-8,1.5
COc1ccccc1C(=O)N1CCN(c2nc3ccc(C)cc3c3nnc(C4CCCCC4)n23)C[C@@H]1C,-7,0.86
Cc1ccccc1NC(=O)N1CCc2nc(-c3ccccc3)nc(N3CCCC3)c2C1,-8,1.11
O=C(c1ccc(=O)[nH]n1)N1CC(Oc2cccnc2)C1,-7,1.28
COC(=O)C12CCCC1CN(CC(=O)N1CCCCC1)C2 (stereo unspecified),-1,0.09
COCC(=O)N1CCC(NC(=O)N2C3CCC2CC2(CC2)C3)CC1,14,-1.75
CC[C@@H](C(=O)NC1(c2cc(F)ccc2F)CC1)N(C)CC,1,-0.15
NC[C@H]1CCN(Cc2cnc(-c3cccc4ccccc34)nc2)C1,5,-0.78

SMILES,% Inhibition [%],Z score
Cc1cc(NC(=O)N[C@@H](Cc2ccccc2)c2n[nH]c(=O)[nH]2)nn1C,-7,0.88
COc1ccc(CNC(=O)[C@H]2CCCN(c3nnc4ccccn34)C2)c(OC)c1,-6,0.65
CCN1CCN(C[C@@H]2CN(Cc3cccc(Cl)c3Cl)C[C@@H]2CO)CC1,0,0.02
Cc1ncc2n1CC[C@H](C(=O)N(C)c1cnn(C)c1)C2,-6,0.81
CCN(CC)[C@@]1(c2nnnn2C2CCCC2)CCN(C(=O)Cn2ccnc2C)C1,-20,2.28
COC(=O)C(c1cc(F)c(F)c(F)c1)N(C)CCN1CCOCC1C (stereo unspecified),-9,1.22
Clc1cnccc1CNC1(c2noc(C3CC3)n2)CCCC1,7,-1.11
Cc1nc(C(=O)NCCCn2ccnc2)c(Cc2ccccc2)s1,3,-0.49
CC(C)CN1CCN([C@H]2CCOC3(CCN(C(=O)c4cc5ccccc5[nH]4)CC3)C2)CC1,-7,1.25
Cc1cccc(-c2nc(Cn3nnc(-c4nc(-c5ccc(OC(C)C)cc5)no4)c3C)c(C)o2)c1,-7,0.94
CC[C@H]1COCCN1C(=O)c1coc(CN2CCN(Cc3ccccc3)CC2)n1,3,-0.51
O=C(NCC1CCN(C(=O)c2cnc[nH]2)CC1)c1ccoc1,-11,1.1
Cc1nc(CC2CCCN(C(=O)NC(C)c3ccc(C)c(F)c3)C2)no1 (stereo unspecified),-12,1.25
CCC(=O)Nc1cccc(-c2noc(C3CCN(C(=O)c4ccc(F)c(F)c4)CC3)n2)c1,-1,0.11
C=CCN1CCN(C(=O)[C@H](C)Oc2cccc3ccccc23)CC1,-4,0.8
COc1ccc(C(=O)N2C[C@@H]3CN(C(=O)C(C)C)C[C@]3(C(=O)N3CCCC3)C2)c(OC)c1,-3,0.59
O=C([C@@H]1C[C@@H]2OCC[C@@H]2N1)N1CCc2cc(F)c(F)cc21,-9,1.43
COCCc1noc([C@@H]2CC(c3ccccc3)=NO2)n1,-6,1.09
c1ccc(-n2cc(-c3nc([C@H]4CCOC4)no3)nn2)cc1,-11,1.92
O=C1Nc2ccc(Cl)cc2[C@@]12Nc1ccccc1-c1nc(-c3ccccc3)nn12,1,-0.09
O=C1CCC(c2nc(-c3ccc4c(c3)OCO4)no2)=NN1,-12,2.28

SMILES,% Inhibition [%],Z score
CN(C)C(=O)c1cnc(N2CCO[C@@H](Cn3cccn3)C2)c(Cl)c1,2,-0.17
CN1C(=O)[C@@H]2CC[C@H]1CN(C(=O)Nc1cccnc1Oc1ccccc1F)C2,-17,1.99
O=S(=O)(Cc1ccccc1Cl)N1CCC(n2ccnn2)CC1,-14,2.12
COc1cccc(-c2cc3c(N(C)C)nccn3n2)c1,-11,1.3
Cc1ccc(F)c(N2CCC[C@H](NC(=O)NC3CC3)C2=O)c1,-17,1.45
C=CCN1CC[C@@]2(CCC1=O)CN(C(=O)C1CCOCC1)CCN2C,10,-1.78
N#Cc1cnc(NCCCOC2CCCCC2)nc1N,-6,0.78
C[C@H](NS(=O)(=O)c1cccc2c1N=S=N2)C(=O)Nc1cccc(F)c1,7,-1.22
O=C(Nc1ccccc1)OCCCc1ccccc1 [3-PHENYLPROPYL PHENYLCARBAMATE],10,-1.28
CCC[C@H]1CN(C(=O)Cc2ccc(O)c(Cl)c2)C[C@@H]1NC(C)=O,12,-1.31
CC[C@H](O)Cn1nc(C)nc1-c1cnc(NC)nc1,1,-0.09
CNC(=O)[C@H](C)NC(=O)c1nc(NC(C)C)ncc1Br,0,-0.06
C[C@]1(NS(=O)(=O)c2cccs2)CCS(=O)(=O)C1,-6,1.07
COc1ccc(CCC(=O)Nc2nnn[nH]2)cc1,1,-0.09
COCC1CCN(S(=O)(=O)N2CCC3(CCCC3)C2)CC1,0,0.02
COc1ccc(NC(=O)CCc2c(C)n(C)c3nc(-c4ccc(Cl)cc4)nn3c2=O)cc1,-10,1.04
CN(Cc1ccsc1)[C@H]1CCC(=O)N(Cc2ccccc2)CC1,-9,1.12
CCCN(CC(=O)Nc1ccc(N2CCN(C(=O)NC(C)(C)C)CC2)cc1)C(=O)c1ccccc1,-5,0.54
CN(C(=O)c1c2n(c(=O)n1C)CCCC2)c1cc(F)ccc1F,-9,0.8
Cc1nc2cccnc2n1C[C@H]1CCCN(S(=O)(=O)c2ccc3c(c2)CCC3)C1,-19,2.85
O=C(COc1ccc(Cl)cc1C(F)(F)F)N(C1CCCC1)[C@H]1CCS(=O)(=O)C1,8,-0.97

SMILES,% Inhibition [%],Z score
Cc1cccc(NCC(=O)Nc2nc(C)c(C)s2)c1,29,-3.92
Cc1noc(C)c1C(=O)NCC1CCN(Cc2cc(=O)n3ccsc3n2)CC1,0,-0.07
Cc1ccc2nc(COc3ccccc3C(=O)N3CCCCC3)cn2c1,26,-3.36
CCn1ccc2cc(C(=O)N3CCC(c4nccn4CC4CC4)CC3)ccc21,-1,0.13
CCn1cnnc1CCn1ccnc1-c1coc(-c2ccccc2)n1,-2,0.2
Cc1ccc2nc(-c3ccc(NC(=O)Cc4cccs4)cc3)ccc2c1,-4,0.67
CC(C)(C)c1cc(CNc2nc(NC3CC3)nc3c2CCNCC3)[nH]n1,8,-1.33
CCn1cc(-c2noc(CNC(=O)N3CCN(C)CC3)n2)cn1,-17,2.14
O=C(c1ccc2nsnc2c1)N1CC[C@H](N2CCc3ccccc3C2)C1,-3,0.39
CCOc1cc(C(=O)O[C@@H]2CCC[C@H]2n2cccn2)ccn1,-9,1.22
O=C(C[C@H]1C(=O)NCCN1Cc1ccccn1)NCc1cc(C2CC2)[nH]n1,-8,1.16
COc1ccc(NC(=O)[C@@H](c2ccc(OC)c(OC)c2)N(Cc2ccc(F)cc2)C(=O)Cn2nnc3ccccc32)cc1,30,-3.41
O=C(CN1CCc2ncnc(N3CCOCC3)c2C1)NC1CC1,4,-0.4
Clc1ccc2cc3n(c2c1)CCNC3,-5,0.66
Cc1cnccc1NC(=O)N1CCC(Oc2cccc(C#N)c2)CC1,-9,1.03
Cc1sc2ncnc(N3CCc4[nH]cnc4C3)c2c1C,-17,2.17
CCc1ccc(-n2c(C)cc(C(=O)Cn3c(C)cc(COC)c(C#N)c3=O)c2C)cc1,-8,0.86
O=C(Nc1ccc(-n2cccn2)c(Cl)c1)NC1CCC(O)CC1 (stereo unspecified),-8,1.67
CC(=O)N1CCCC1C1CCCN1c1ncccc1C#N (stereo unspecified),-9,1.63
COCc1nnc(N2CCC(Oc3cccc(C#N)c3)CC2)n1CC(C)C,-18,2.84
